Data on 18 cell lines can be found in the supplement of paper PMC4967469.

Lines with a small IC50 respond at low doses; a limit (>, <) means that the fit lies beyond the doses tested. AUC, from the same fit, is the share of area under the viability curve across the 256-fold dose range; the more sensitive the line, the further below 1. For part of these data: An inferred top dose comes from the curve model; the source does not state it.

In general, IC50 refers to the midpoint of a concentration-inhibition curve.

Holding throughout (assay): Viability of human cancer cell lines after 72 h of drug (GDSC screen)
Compound in one test: CO[C@@H]1[C@H](N(C)C(=O)c2ccccc2)C[C@H]2O[C@]1(C)n1c3ccccc3c3c4c(c5c6ccccc6n2c5c31)C(=O)NC4 [Midostaurin]
To be noted: top dose 0.512 µM; top dose inferred. On the procedure:
(§1)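 Human cancer cell lines in 384-well plates, medium with 10% serum, drug for 72 h over a 256-fold dose range (nine 2-fold or five 4-fold steps up to the top dose). Adherent lines were fixed and stained with the nucleic acid dye Syto60, suspension lines read with resazurin; signal relative to control wells, capped at 0 and 100%. One two-parameter sigmoid per drug and line, fitted in a mixed model over all curves with the slope shared within a line.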

Compound in a further test: COc1cc(Nc2c(C#N)cnc3cc(OCCCN4CCN(C)CC4)c(OC)cc23)c(Cl)cc1Cl [Bosutinib]
To be noted: top dose 2 µM. The method, then: as §1

Compound in the next test: Cc1ccc(C(=O)Nc2cccc(C(F)(F)F)c2)cc1Nc1nc(-c2cccnc2)nc2c1cnn2C [NVP-BHG712]
To be noted: top dose 10.24 µM; top dose inferred. On the procedure: as §1

Compound in another test: O=C(O)CNC(=O)c1c(O)c2ccccc2n(Cc2ccccc2)c1=O [IOX2]
As to conditions: top dose 0.1 µM; top dose inferred. The method, then:
as §1

For UM-UC-3 (bladder, adherent), the AUC in the test with Midostaurin came out at 0.897; with Bosutinib, 0.87; in the test with NVP-BHG712, 0.817; with IOX2, 0.985. In addition, the IC50 with Midostaurin is above 512 nM; with Bosutinib, 1670 nM; with NVP-BHG712, 5280 nM; with IOX2, above 100 nM.

CADO-ES1 (Ewing sarcoma, suspension): the results for the AUC with Bosutinib, in the test with NVP-BHG712 and with IOX2 were 0.984, 0.988 and 0.976, respectively. Also, the IC50 in the test with Bosutinib was above 2000 nM; with NVP-BHG712, above 10200 nM; in the test with IOX2, above 100 nM.

For COLO-679 (melanoma, adherent), the AUC came to 0.918 with Midostaurin, 0.985 with Bosutinib, 0.934 with NVP-BHG712 and 0.983 with IOX2. Also, the IC50 in the test with Midostaurin is above 512 nM; with Bosutinib, above 2000 nM; in the test with NVP-BHG712 it was above 10200 nM; with IOX2 it was above 100 nM.

With “HL-60 (acute myeloid leukaemia, suspension)”, the values for the AUC in the test with Bosutinib, with NVP-BHG712 and in the test with IOX2 were 0.891, 0.624 and 0.989, respectively. Besides, the IC50 with Bosutinib is 1910 nM; with NVP-BHG712, 1360 nM; with IOX2, above 100 nM.

As for NCI-H23 (lung adenocarcinoma, adherent), the AUC in the test with Bosutinib is 0.893; in the test with NVP-BHG712, 0.919; with IOX2, 0.981. Further, the IC50 was above 2000 nM with Bosutinib, above 10200 nM with NVP-BHG712 and above 100 nM with IOX2.

As for SK-UT-1 (soft tissue, adherent), the AUC was 0.84 with Midostaurin, 0.88 with Bosutinib, 0.95 in the test with NVP-BHG712 and 0.986 with IOX2. Moreover, the IC50 with Midostaurin is 309 nM; in the test with Bosutinib it was 1750 nM; in the test with NVP-BHG712, above 10200 nM; with IOX2 it was above 100 nM.

Take RCC-FG2 (kidney, adherent): the values for the AUC with Bosutinib, in the test with NVP-BHG712 and in the test with IOX2 were 0.867, 0.942 and 0.957, respectively. Besides, the IC50 with Bosutinib is above 2000 nM; with NVP-BHG712, above 10200 nM; with IOX2, above 100 nM.

In the case of MCF7 (breast, adherent), the AUC with Bosutinib was 0.983; with NVP-BHG712, 0.98; with IOX2 it was 0.985. In addition, the results for the IC50 in the test with Bosutinib, with NVP-BHG712 and with IOX2 were above 2000 nM, above 10200 nM and above 100 nM, respectively.

For the cell line SK-MG-1 (glioma, adherent), the AUC in the test with Bosutinib is 0.926; in the test with NVP-BHG712 it was 0.965; with IOX2, 0.977. For the same cell line, the IC50 in the test with Bosutinib is above 2000 nM; in the test with NVP-BHG712, above 10200 nM; with IOX2, above 100 nM.

Consider SNU-407 (large intestine, adherent), for which the AUC with Bosutinib amounted to 0.828; in the test with NVP-BHG712 it was 0.58; in the test with IOX2, 0.981. Besides, the IC50 is 1520 nM in the test with Bosutinib, 1100 nM in the test with NVP-BHG712 and above 100 nM with IOX2.

TE-4 (oesophagus, adherent): the results for the AUC with Bosutinib, with NVP-BHG712 and with IOX2 were 0.839, 0.987 and 0.892, respectively. Further, the IC50 with Bosutinib was 1360 nM; in the test with NVP-BHG712, above 10200 nM; in the test with IOX2 it was above 100 nM.

Turning to OV-17R (ovary, adherent), the AUC in the test with Bosutinib was 0.95; with NVP-BHG712 it was 0.86; with IOX2 it was 0.973. In addition, the 50% inhibitory concentration (IC50) is above 2000 nM in the test with Bosutinib, above 10200 nM in the test with NVP-BHG712 and above 100 nM with IOX2.

Turning to SNB75 (glioma, adherent), the AUC with Bosutinib turned out to be 0.979; with NVP-BHG712, 0.978; in the test with IOX2, 0.959. Further, the IC50 with Bosutinib was above 2000 nM; with NVP-BHG712, above 10200 nM; with IOX2, above 100 nM.

For OACp4C (oesophagus, adherent), the AUC with Bosutinib came out at 0.823; in the test with NVP-BHG712 it was 0.684; with IOX2, 0.973. The IC50 is 1510 nM with Bosutinib, 2340 nM with NVP-BHG712 and above 100 nM with IOX2.

In the case of NCC021 (kidney, adherent), the values for the AUC with Bosutinib, in the test with NVP-BHG712 and with IOX2 were 0.976, 0.951 and 0.968, respectively. Moreover, the IC50 is above 2000 nM in the test with Bosutinib, above 10200 nM with NVP-BHG712 and above 100 nM in the test with IOX2.

ESO26 (oesophagus, adherent): the values for the AUC in the test with Bosutinib, with NVP-BHG712 and with IOX2 were 0.931, 0.888 and 0.988, respectively. The IC50 in the test with Bosutinib was above 2000 nM; with NVP-BHG712, above 10200 nM; with IOX2 it was above 100 nM.

As to AsPC-1 (pancreas, adherent), the AUC was 0.911 with Bosutinib, 0.795 in the test with NVP-BHG712 and 0.971 with IOX2. Further, the IC50 in the test with Bosutinib is above 2000 nM; with NVP-BHG712, 9420 nM; in the test with IOX2, above 100 nM.

With D-566MG (glioma, adherent), the AUC with Bosutinib was found to be 0.849; with NVP-BHG712 it was 0.921; in the test with IOX2 it was 0.982. In addition, the IC50 is 1470 nM with Bosutinib, above 10200 nM in the test with NVP-BHG712 and above 100 nM in the test with IOX2.
